We go through 42 compounds from ChEMBL document CHEMBL4888484, “Replenishing the malaria drug discovery pipeline: Screening and hit evaluation of the MMV Hit Generation Library 1 (HGL1) against asexual blood stage Plasmodium falciparum ,using a nano luciferase reporter read-out” (2022).

The term % Inhibition denotes the change of the read-out against control, counted positive when it falls.

The structures appear in SMILES notation. Hit rate of the full screen: of about 150,000 compounds, about 540 (0.36%) showed an effect of 50% or more. The list shows a part of the results.

The assay relates to Plasmodium falciparum. Put plainly: Primary screen in NF54 nanoGlo assay, in single point, at 2uM, 72h; a lower Z score goes with more inhibition. Type of assay: functional, Erythrocyte. The settings on record: timepoint 72 hour.
As to `NC(=O)[C@H]1CCCN1C(=O)Cc1cccc(Cl)c1F`, the “% Inhibition” value was -10% and the Z score came out at 1.19.

With `Brc1ccc(NCCOc2cccnc2)nc1`, the “% Inhibition” value was -8% and the Z score is given as 1.29.

In the case of `Cc1nn(CCOc2ccccc2)c(=O)n1-c1cccc(Cl)c1`, the “% Inhibition” value was -6% and the Z score was 0.93.

On to `O=C(C1COCCO1)N1CCCC1c1ccc(Cl)c(Cl)c1` (centres undefined), for which the “% Inhibition” value was -6% and the Z score is given as 1.14.

Turning to `CC(C)C(=O)N1C2C=CC(C2)C1(C(F)(F)F)C(F)(F)F` (centres undefined), the “% Inhibition” value is -5% and the Z score amounted to 0.53.

On to `N#Cc1cc(F)ccc1CO[C@H]1CCCc2c[nH]nc21`, for which the “% Inhibition” value is given as -12% and the Z score was 1.77.

In the case of `C#CCCC1(CCC(=O)Nc2cc(C)c3nccn3c2)N=N1`, the “% Inhibition” value was -5% and the Z score is on record as 0.9.

For `CC(C)Cn1ccc2c(cc(C(=O)NCc3ccc(F)c(Cl)c3)n2C)c1=O`, the “% Inhibition” value was -13% and the Z score worked out at 1.24.

In the case of `c1ccc(C2(c3nc(C4CCCC4)no3)CCOCC2)cc1`, the “% Inhibition” value is -12% and the Z score stood at 2.25.

Consider `Cc1cc2ccccc2nc1N1CCC(c2ncc[nH]2)CC1`, for which the “% Inhibition” value is reported as -9% and the Z score is on record as 1.25.

Consider `O=C(O)c1ccc(C(=O)N(CC2CCC2)CC(F)(F)F)cc1`, for which the “% Inhibition” value is listed as -8% and the Z score was found to be 1.22.

Consider `CN(C)CCN(C(=O)c1cc(N(C)C)ccn1)c1ccccc1`, for which the “% Inhibition” value is -4% and the Z score is given as 0.56.

On to `CCS(=O)(=O)N(CCN1CCCCC1)C1CN(C(=O)NC2CCCCC2)C1`, for which the “% Inhibition” value worked out at 7% and the Z score is -0.96.

Take `COc1ccc2c(c1)c(CN1CCC(C(=O)NCCN3CCOCC3)CC1)cn2C`: the “% Inhibition” value is -11% and the Z score was found to be 1.48.

For the compound `CC1(CS(=O)(=O)NC2CCN(c3ncccn3)CC2)COC1`, the “% Inhibition” value was determined as 0% and the Z score is 0.05.

Turning to `Cn1nc(CC(C)(C)C)cc1NC(=O)c1ncoc1C1CC1`, the “% Inhibition” value is given as -16% and the Z score was 2.1.

As for `COc1cc(-c2ccc(C(=O)N(C)Cc3c[nH]nc3C)cc2)nc(OC)n1`, the “% Inhibition” value is -7% and the Z score was 1.02.

Turning to `COC(=O)c1ccc(Cl)c(S(=O)(=O)Nc2ccn(Cc3cccc4cccnc34)n2)c1`, the “% Inhibition” value was 8% and the Z score is listed as -1.08.

On to `Cc1cc([C@H](C)NS(=O)(=O)CCN2CCCC2)c(C)s1`, for which the “% Inhibition” value was determined as 2% and the Z score is -0.22.

As for `O=C(Nc1cccc([C@H]2Nc3ccccc3C(=O)N2CC(F)(F)F)c1)c1ccccc1Cl`, the “% Inhibition” value was determined as 11% and the Z score was -2.04.

With `c1ccc(-c2ncc3c(n2)CCC[C@@H]3NC2CCC2)cc1`, the “% Inhibition” value is -13% and the Z score is 1.4.

Turning to `CO[C@@H](CNC(=O)Nc1ccccc1C(F)(F)F)c1cc2ccccc2o1`, the “% Inhibition” value is given as -13% and the Z score came out at 2.16.

For `C#CCCC1(CCC(=O)N2C3CCC2CC2(C3)CC2(F)F)N=N1` (centres undefined), the “% Inhibition” value is listed as 6% and the Z score is given as -0.77.

In the case of `Cc1nc2cc(S(=O)(=O)N3CCC(C(=O)NCc4cccc(F)c4)CC3)ccc2n1C1CCCC1`, the “% Inhibition” value was -12% and the Z score is listed as 2.16.

As to `CC1(C)c2[nH]c3ccccc3c2C[C@H]2C(=O)N(CCc3ccccc3)CC(=O)N21`, the “% Inhibition” value is listed as -1% and the Z score worked out at 0.14.

`CCN1CCn2c(nn(CC(=O)Nc3cccc(F)c3)c2=O)C1=O`: the “% Inhibition” value is on record as -10% and the Z score turned out to be 1.13.

`CCn1cccc(NC(=O)NCCc2nnc3ccccn23)c1=O`: the “% Inhibition” value is reported as -8% and the Z score is 1.54.

Regarding `Cc1ccc([C@H]2CN(Cc3cccc(C#N)c3)C[C@@H]2N(C)C)cc1`, the “% Inhibition” value is on record as -3% and the Z score is 0.4.

As for `C[C@@H](c1nc2cc(Cl)ccc2[nH]1)N(C)Cc1cnns1`, the “% Inhibition” value is recorded as -10% and the Z score is 1.33.

Regarding `O=C(NC[C@H]1COCc2nc3ccccc3n21)c1cccnc1`, the “% Inhibition” value is listed as -10% and the Z score was 1.68.

As to `Cc1ccc(Cn2c(=O)c3nn(C)cc3n3c(=O)n(Cc4ccc(F)cc4)nc23)cc1`, the “% Inhibition” value came out at 2% and the Z score is given as -0.24.

As for `CN(C)Cc1ccc(C(=O)NCC(=O)N2CCN(c3ccccc3)CC2)cn1`, the “% Inhibition” value came out at 12% and the Z score was -1.52.

For `CC(C)C[C@H]1CCN(Cc2cscn2)C1`, the “% Inhibition” value was -1% and the Z score is 0.09.

Turning to `Cc1cc(=O)[nH]c(N2CCC[C@H](NC(=O)OCC3CC3)C2)n1`, the “% Inhibition” value was -5% and the Z score amounted to 1.08.

Consider `CNC(=O)c1ccc(Cl)c(-n2ccnc2-c2cnc(-c3ccco3)nc2)c1`, for which the “% Inhibition” value amounted to 1% and the Z score is on record as -0.2.

As for `COc1cccc(CN2CCC3(CC[C@@H]3N3CCOCC3)CC2)c1`, the “% Inhibition” value was -2% and the Z score came to 0.29.

In the case of `COCC1(CNC(=O)c2cc(C(N)=O)co2)CCCCC1`, the “% Inhibition” value is -9% and the Z score turned out to be 1.4.

Regarding `Cc1c(Nc2ncnc3c2cnn3C)c(=O)n(-c2ccccc2)n1C`, the “% Inhibition” value is reported as -11% and the Z score is given as 1.28.

For the compound `CN1CCN(C(=O)c2cccn2C)C[C@H]1C(C)(C)C`, the “% Inhibition” value was -4% and the Z score was 0.68.

`Nc1nc2ccccc2n1CCCn1ccnc1`: the “% Inhibition” value is reported as -11% and the Z score was determined as 0.97.

Consider `O=c1nc(CN2C[C@@H](c3cccc(C(F)(F)F)c3)OCC23CCCC3)[nH][nH]1`, for which the “% Inhibition” value is listed as -17% and the Z score came to 1.9.

Take `CS(=O)(=O)CC1(CC(=O)Nc2c(F)cccc2NC2CC2)CC1`: the “% Inhibition” value is recorded as -3% and the Z score came to 0.41.
